Experimental data as given in PubChem BioAssay AID662 (National Center for Advancing Translational Sciences (NCATS), 2007).
Screen size: about 71,000 compounds; about 1,800 (2.5%) were called active. The inconclusive results got no clear call from the source; some entries with a clear call stand among them for comparison. The call rests on the fitted dose curve; in most records, active means well fitted activation curve with a large enough effect in the signal ratio, with a control signal flat (not every such curve was filed as active); inconclusive means small, poorly fitted or top-dose-only effect, or effect the other way, or a change in a side signal; inactive means flat fitted curve, though single readings scatter; the % refers to the signal ratio. Potencies beside an inconclusive call are fits to weak or partial responses and may not hold up.

Assay: Cell signaling CRE-BLA (Fsk stim); on activity change, negative = inhibition: % of control where 0% means no effect
Details: CHO CRE-bla reporter (cAMP response element driving beta-lactamase), forskolin EC10, beta-lactamase ratio; activity change, negative = inhibition: at 38.2 µM (top of the series) unless noted
How it was run: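 CRE-bla CHO reporter cells treated with compound titration plus EC10 NKH 477 (water-soluble forskolin), incubated 3 h at 37 °C; CCF4 loading 2 h at room temperature, 460/530 nm emission ratio read, AC50 values derived for positive or negative modulators.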
Potency means the concentration at half of the fitted maximal effect; tags describe the fitted curve by direction and shape.

Question: For `Oc1ccc2c3c1O[C@@H]1[C@@H](O)CC[C@]4(O)[C@H](C2)N(CC2CCC2)CC[C@@]314`, which “activity change, negative = inhibition” value is on record?
Answer: inactive: -6.57%

Question: Which “activity change, negative = inhibition” value does the source give for `NCC#Cc1ccccc1` here?
Answer: inactive: -10.2%

Question: For `CNc1ccc2oc(C[C@H]3O[C@]4(CC[C@H]3C)O[C@H]([C@H](C)C(=O)c3ccc[nH]3)[C@H](C)C[C@H]4C)nc2c1C(=O)O`, which Potency is on record?
Answer: inconclusive: 0.794 µM [rising, full curve]

Question: For `CCCCCCCCOC(=O)c1ccccc1C(=O)OCCCCCCCC`, which “activity change, negative = inhibition” value is on record?
Answer: inactive: -8.56%

Question: With `Clc1ccc(CO[C@@H](Cn2ccnc2)c2ccc(Cl)cc2Cl)cc1` as the compound, how does the “activity change, negative = inhibition” value read?
Answer: inactive: 25.9% [at 17.1 µM]

Question: Which Potency does the source give for `Nc1ccccc1N=Cc1c(O)n(CCC2=CCCCC2)c(=O)[nH]c1=O` here?
Answer: inconclusive: 20 µM [rising, single point]

Question: With `C=CC=O` as the compound, how does the “activity change, negative = inhibition” value read?
Answer: inactive: -10.9%

Question: For `C(CCOCC1CO1)COCC1CO1` (stereo unspecified), which “activity change, negative = inhibition” value is on record?
Answer: inactive: -9.93%

Question: With `CSC([N-]/N=C/c1cccc(C)n1)=[S]=[Cu].CS[C@H]([S-])[N-]/N=C/c1cccc(C)n1` as the compound, how does the activity change, negative = inhibition read?
Answer: inconclusive: -9.08% [at 7.6 µM]

Question: With `CN1CCc2cccc(Cl)c2CC1` as the compound, how does the “activity change, negative = inhibition” value read?
Answer: inactive: -4.46%

Question: Which activity change, negative = inhibition does the source give for `Cc1ccc(CN2CCN(C)CC2)c(C)c1` here?
Answer: inconclusive: 24% [at 7.6 µM]

Question: Which “activity change, negative = inhibition” value does the source give for `C=CC1CC=CCC1` (stereo unspecified) here?
Answer: inactive: -8.62%

Question: Which “activity change, negative = inhibition” value does the source give for `Cc1ccc([N+](=O)[O-])cc1C` here?
Answer: inactive: -9.92%

Question: For `CCC(=NCC1CCCO1)c1c(O)n(-c2ccccc2)c(=O)[nH]c1=O` (stereo unspecified), which activity change, negative = inhibition is on record?
Answer: inconclusive: 18.6%

Question: With `CCNc1nc(Cl)nc(NC(C)C)n1` as the compound, how does the Potency read?
Answer: active: 7.94 µM

Question: With `Oc1c(Br)c(Br)c(Br)c(Br)c1Br` as the compound, how does the activity change, negative = inhibition read?
Answer: inconclusive: -7.84%

Question: Which Potency does the source give for `S=C=Nc1cccc(C2(N3CCCCC3)CCCCC2)c1` here?
Answer: inconclusive: 31.6 µM [falling, single point]

Question: Which activity change, negative = inhibition does the source give for `O=[As](O)(O)c1ccc2nc3cc([As](=O)(O)O)ccc3nc2c1` here?
Answer: inactive: -3.07% [at 7.6 µM]

Question: For `CCSCC[C@H](N)C(=O)O`, which activity change, negative = inhibition is on record?
Answer: inactive: -9.67% [at 7.6 µM]

Question: Which Potency does the source give for `c1ccc(CCCN2CCN(CCOC(c3ccccc3)c3ccccc3)CC2)cc1` here?
Answer: inconclusive: 15.8 µM [falling, partial curve, poor fit]

Question: With `CN1C(=O)N(C)C(=O)C2(Cc3c(ccc4ccccc34)N(C)C2)C1=O` as the compound, how does the activity change, negative = inhibition read?
Answer: inconclusive: 15.9%

Question: Which activity change, negative = inhibition does the source give for `c1ccc2c(c1)-c1cccc3cccc-2c13` here?
Answer: inconclusive: 19.7%

Question: For `COc1cc(OC)cc(-n2nc(C(=O)N3CCC4(CC3)OCCO4)c3ccccc3c2=O)c1`, which Potency is on record?
Answer: inconclusive: 10 µM [rising, single point]

Question: For `CC(=Nc1ccc2c(c1)CCC2)c1c(O)n(C2CCCCC2)c(=O)[nH]c1=O`, which Potency is on record?
Answer: inconclusive: 25.1 µM [rising, single point]

Question: For `c1ccc(N2CC3(CCNCC3)C2)nc1`, which “activity change, negative = inhibition” value is on record?
Answer: inactive: -4.61%

Question: Which activity change, negative = inhibition does the source give for `C[C@@]12CC[C@H](O[C@@H]3O[C@H](CO)[C@@H](O)[C@H](O)[C@@H]3O)C[C@@H]1CC[C@H]1[C@H]2CC[C@@]2(C)[C@@H](C3=CCOC3=O)CC[C@]12O` here?
Answer: inactive: -3.35% [at 7.6 µM]

Question: For `C=CCn1c(O)c(C(C)=Nc2ccc(N(CC)CC)cc2)c(=O)[nH]c1=O`, which Potency is on record?
Answer: inconclusive: 12.6 µM [rising, single point]

Question: With `Cc1ccc2c(c1)CC1(CN2C)C(=O)NC(=O)N(C(C)C)C1=O` (stereo unspecified) as the compound, how does the “activity change, negative = inhibition” value read?
Answer: inactive: 2.51%

Question: Which “activity change, negative = inhibition” value does the source give for `c1ccc(N2CCCC3(CCNCC3)C2)cc1` here?
Answer: inactive: 1.52%

Question: Which “activity change, negative = inhibition” value does the source give for `COC(=O)c1c(C)n(Cc2ccc3c(c2)OCO3)c2ccc(O)cc12` here?
Answer: inactive: 10.9%

Question: With `Cc1cccn2c(=O)c3cc(C(=O)N4CCC5(CC4)OCCO5)n(C)c3nc12` as the compound, how does the activity change, negative = inhibition read?
Answer: inconclusive: 19%

Question: For `Cc1ccc(CC2C(=O)N(C)C(=O)N(C)C2=O)s1`, which activity change, negative = inhibition is on record?
Answer: inconclusive: -12.6% [at 7.6 µM]

Question: Which activity change, negative = inhibition does the source give for `CN(C)c1ccc(N=O)cc1` here?
Answer: inconclusive: -2.59% [cytotoxic]

Question: With `CCCCCCOc1ccc(CN2CCN(C)CC2)cc1` as the compound, how does the “activity change, negative = inhibition” value read?
Answer: inactive: 13.8%

Question: With `CC(C)(c1ccccc1)c1ccc(O)cc1` as the compound, how does the Potency read?
Answer: inconclusive: 12.6 µM [rising, partial curve]

Question: Which Potency does the source give for `CCCCn1c(O)c(C(C)=NCCc2ccccc2)c(=O)[nH]c1=O` here?
Answer: inconclusive: 25.1 µM [rising, single point]

Question: With `O=c1[nH]c(=O)n(CCC2=CCCCC2)c(O)c1C=NCCN1CCNCC1` as the compound, how does the activity change, negative = inhibition read?
Answer: inconclusive: -0.403%

Question: Which “activity change, negative = inhibition” value does the source give for `CC(C)OS(C)(=O)=O` here?
Answer: inactive: -6.62%

Question: With `C=C(CC1(C(C)NP(=O)(c2ccccc2)c2ccccc2)CC1)c1ccccc1` (stereo unspecified) as the compound, how does the “activity change, negative = inhibition” value read?
Answer: inactive: -32.3%

Question: Which activity change, negative = inhibition does the source give for `Cc1ccc(-n2c(O)c(C=Nc3ccccc3N)c(=O)[nH]c2=O)cc1C` here?
Answer: inconclusive: -3.61%

Question: Which activity change, negative = inhibition does the source give for `O=C(Cn1cnc2sc3c(c2c1=O)CCCC3)NCCC(=O)N1CCC2(CC1)OCCO2` here?
Answer: inconclusive: -15.8%

Question: Which Potency does the source give for `CCCCCn1c(N)c(C(=O)NCCN2CCOCC2)c2nc3ccccc3nc21` here?
Answer: inconclusive: 12.6 µM [rising, partial curve]

Question: Which “activity change, negative = inhibition” value does the source give for `c1cnc(N2CCCC3(CCNCC3)C2)nc1` here?
Answer: inactive: -1.53%

Question: Which activity change, negative = inhibition does the source give for `C=CCn1c(O)c(C(CC)=Nc2ccccc2NC(C)=O)c(=O)[nH]c1=O` here?
Answer: inconclusive: -18.2%

Question: Which activity change, negative = inhibition does the source give for `CCC(C)N1C(=O)NC(=O)C2(Cc3c(ccc4ccccc34)N(C)C2)C1=O` (stereo unspecified) here?
Answer: inconclusive: 1.85%

Question: With `Cc1cc(S(=O)(=O)NC(C)C)ccc1OCC(=O)N1CCN(Cc2ccc3c(c2)OCO3)CC1` as the compound, how does the activity change, negative = inhibition read?
Answer: inconclusive: -1.14%

Question: With `CC(=NC1CCN(Cc2ccccc2)CC1)c1c(O)n(C)c(=O)n(C)c1=O` as the compound, how does the activity change, negative = inhibition read?
Answer: inconclusive: 6.47%

Question: With `COC(=O)[C@@H]1c2cc3c(c(O)c2[C@@H](O)C[C@]1(C)O)C(=O)c1c(O)cc2c(c1C3=O)O[C@H]1O[C@@]2(C)[C@@H](O)[C@H](N(C)C)[C@H]1O` as the compound, how does the activity change, negative = inhibition read?
Answer: inconclusive: 3.32% [at 7.6 µM]

Question: Which “activity change, negative = inhibition” value does the source give for `Cn1c(O)c(C=Nc2ccc(Cl)cc2)c(=O)n(C)c1=O` here?
Answer: inactive: -1.89%

Question: For `CCn1nc(-c2cccs2)nc2c(=O)n(C)c(=O)nc1-2`, which activity change, negative = inhibition is on record?
Answer: inconclusive: -6.43%

Question: With `CCCN1CCC[C@H](c2cccc(C#N)c2)C1` as the compound, how does the “activity change, negative = inhibition” value read?
Answer: inactive: -8.5%

Question: Which “activity change, negative = inhibition” value does the source give for `CCOP(=O)(C#CC(C)(C)C)C1(O)CCCCC1` (stereo unspecified) here?
Answer: inactive: 16.7%

Question: Which activity change, negative = inhibition does the source give for `CCN1C[C@@]2(C)CC[C@H](O)[C@@]34[C@@H]5C[C@H]6[C@H](O)[C@@H]5[C@](O)(C[C@@H]6OC)[C@H](C[C@@H]23)[C@H]14` here?
Answer: inconclusive: -17.2%

Question: For `CNC(C)(C)Cc1ccccc1`, which “activity change, negative = inhibition” value is on record?
Answer: inactive: -4.94% [at 17.1 µM]

Question: With `c1ccc(N=NNc2ccccc2)cc1` as the compound, how does the “activity change, negative = inhibition” value read?
Answer: inactive: -19.3%

Question: For `N=c1sc2c(n1Cc1ccccc1)CCCC2`, which Potency is on record?
Answer: inconclusive: 5.01 µM [falling, single point]
